# Among all 45,000 compounds or so, about 200 (0.44%) were called active. About 7% were inconclusive and are not listed. Calls follow the shape of the dose curve; as a rule, active = well fitted activation curve with a large enough effect; inconclusive = small, poorly fitted or top-dose-only effect; inactive = no such curve, though single readings can be large or run the other way. The list shows a part of the results.
# Test: qHTS of TDP-43 Inhibitors: NCGC Sytravon Library Screen; also: 0% is about no effect; nearly all actives have a fitted effect of over 55% in size
# Details: yeast TDP-43 toxicity rescue, BacTiter-Glo growth, 24 h; series mostly up to 46.1 µM; growth rescue (activation): at the top concentration
# Procedure, shortened: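 TDP-43-expressing yeast, pregrown in raffinose, seeded at OD600 0.02 in galactose medium with compound for 24 hr at 30 deg C. Growth read by BacTiter-Glo luminescence, so rescue of toxicity appears as activation.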
row,Structure (SMILES),growth rescue (activation)
1,Cc1ccccc1Cn1cc(C)c(=O)[nH]c1=O,inactive: -10.9%
2,Cc1cccc(OCC(=O)N(Cc2sccc2C)C2CCS(=O)(=O)C2)c1 (configuration not stated),inactive: 15.6%
3,CCCCC(C(=O)NC1CCCC1)N(C(=O)c1snc(C(N)=O)c1N)c1ccc(F)cc1 (configuration not stated),inactive: 8.09%
4,Nc1nc(NCCCN2CCOCC2)nc(Nc2cccc(F)c2)c1[N+](=O)[O-],inactive: 4.59%
5,COC(=O)c1cc2c(ccn2-c2ccc(F)cc2)n1CC(=O)C(C)(C)C,inactive: 1.96%
6,C=CCNc1nc2cc(-c3cccc(Cl)c3)sc2c(=O)n1C,inactive: 24.1%
7,O=C(/C=C/c1ccc(Cl)cc1)Nc1cc(S(=O)(=O)N2CCOCC2)ccc1N1CCOCC1,inactive: 9.56%
8,CCc1nc2sccc2c(=O)[nH]1,inactive: -4.74%
9,CCN1CCN(CCCOc2ccc(Cl)cc2Br)CC1,inactive: -4.81%
10,O=S(=O)(Cc1cc(-c2ccccc2)no1)c1ccccc1,inactive: 11.3%
11,Cc1cc(C)n2c(SCC(O)=C(C#N)c3nc4ccccc4[nH]3)nnc2n1,inactive: 0.126%
12,CC(=O)Oc1ccc(-c2cccc(C(=O)N3CCCCC3)c2)cc1,inactive: -3.7%
13,CCc1cccc(NC(=S)N(CCOC)C2CCN(C(C)=O)CC2)c1,inactive: -5.43%
14,Cc1c(C)n(CCCN(C)C)c2ncnc(NCc3ccccc3)c12,inactive: 1.88%
15,CC(=O)Nc1ccc(Sc2ncnc3scc(-c4ccccc4)c23)cc1,inactive: 23.6%
16,CCCC(C)NC(=O)Cc1ccc(Br)cc1 (configuration not stated),inactive: 10.6%
17,Cc1ccc(C2(c3noc(CN4CCC(c5ccncc5)CC4)n3)CCCC2)cc1,inactive: 5.49%
18,O=C(CNc1n[nH]c(=O)[nH]c1=O)N/N=C/C1CC=CCC1 (configuration not stated),inactive: -6.87%
19,O=CNc1cc(-c2ccc(C(=O)NC3CC3)cc2)cn2c(-c3ccc(F)cc3)cnc12,inactive: 4.02%
20,COc1ccnc(Oc2ccc(Cl)cc2)c1C#N,inactive: 12.5%
21,O=C(CSc1nc2ccccc2c(=O)n1Cc1ccccc1)Nc1ccc(Br)cc1C(=O)O,inactive: 4.68%
22,COc1cc(C(=O)Nc2ccc3c(c2)OCO3)ccc1OCc1c(C)noc1C,inactive: 19.1%

row,Structure (SMILES),growth rescue (activation)
1,CC(NC(=O)c1ccccc1NC(=O)c1ccncc1)c1ccccc1 (configuration not stated),inactive: 10.3%
2,CCc1cc(C(=O)N2CCCC(Nc3ccc(F)c(F)c3)C2)n(C)n1 (configuration not stated),inactive: 15%
3,COc1ccc(Cl)cc1NC(=O)C(C)NC(c1ccccc1)c1ccccc1 (configuration not stated),inactive: 14.1%
4,COc1ccc(N(C2=NCCCS2)S(=O)(=O)c2ccc(C(C)(C)C)cc2)cc1,inactive: -2.31%
5,COc1cc(/C=N/NC(=O)COc2cc(C)cc(C)c2)ccc1OS(=O)(=O)c1ccc(C)cc1,inactive: 15.6%
6,CCCNC(=O)c1c(Cl)cnn1-c1ccc(C)cc1,inactive: 6.17%
7,CC1(Cc2ccc(S(C)(=O)=O)cc2)C(=O)Nc2ccc(Cl)cc21 (configuration not stated),inactive: 11.1%
8,Cc1ccc(C(=O)NCc2cccnc2)cc1S(=O)(=O)Nc1ccccc1,inactive: 13.6%
9,Cc1cc(C(=O)Nn2c(-c3ccc(Br)cc3)nc3ccccc3c2=O)ccc1[N+](=O)[O-],inactive: 2.3%
10,O=C(Nc1nnc(SCc2ccc(F)cc2)s1)c1ccc2c(c1)C(=O)N(c1ccccc1Cl)C2=O,inactive: 6.62%
11,CCOC(=O)c1c(NC(=O)c2c(C(=O)O)cccc2[N+](=O)[O-])sc(C)c1C,inactive: 3.72%
12,COCCNc1nc(NCCOc2ccccc2Cl)c2sccc2n1,inactive: 9.54%
13,Cc1cccc(C(=O)N[C@H](C(=O)OCC(=O)NC(=O)c2cccn2C)C(C)C)c1,inactive: -3.5%
14,CCOC(=O)c1c(CC(C)C)csc1/N=C/C1C(=O)CC(C)(C)CC1=O,inactive: 15.4%
15,O=C(O)c1ccc(S(=O)(=O)/N=C2\C=C(Nc3ccccc3F)C(=O)c3ccccc32)cc1,inactive: -27.5%
16,COc1cc(C)c(NC(=S)Nc2cccc(Cl)c2)cc1OC,inactive: -18.8%
17,NC(=O)c1cc(S(=O)(=O)N2CCc3ccccc3C2)cs1,inactive: -1.51%
18,COC(=O)CC(c1ccc(C#N)cc1)n1c(C)ccc1C (configuration not stated),inactive: 21.7%
19,COc1cccc(C(=O)NNC(=O)CCN2CCN(c3ccccc3)CC2)c1,inactive: 8.36%
20,CCNc1nc(NCC)n2c(SCC(=O)NC34CC5CC(CC(C5)C3)C4)nnc2n1,inactive: -25.3%
21,COc1ccc(-c2nc(-c3cccnc3)no2)cc1OC,inactive: 13.9%
22,CCCCNC(=O)C1(C)CCCCN1C(=O)c1cc(-c2ccccc2)cs1 (configuration not stated),inactive: 15.1%

row,Structure (SMILES),growth rescue (activation)
1,S=C(NCc1ccc(Cl)cc1)Nc1ccc(Cl)cc1Cl,inactive: -25.7%
2,O=C(O)CSCC(=O)NCc1ccccc1Cl,inactive: 1.93%
3,C=CCN=C(C)C1=C(O)C(C)OC1=O (configuration not stated),inactive: 15.4%
4,Cc1ccc(NC(=O)CNC(C)c2ccccc2)cc1 (configuration not stated),inactive: -9.51%
5,S=c1[nH]nc(-c2cc(-c3ccccc3)n[nH]2)n1/N=C/c1c2ccccc2cc2ccccc12,inactive: -0.184%
6,COc1ccc(NC(=O)C2CCCN(C(=O)Nc3ccc(OC)cc3)C2)cc1 (configuration not stated),inactive: -6.3%
7,Cc1[nH]c(=O)[nH]c(=O)c1S(=O)(=O)N1CCCCC1,inactive: 13.3%
8,O=C(CSC1=NCCS1)NC(c1ccccc1)c1ccccc1,inactive: -0.763%
9,COc1ccc(C2CC(c3cccs3)=NN2c2ccc(F)cc2)cc1OC (configuration not stated),inactive: 3.24%
10,Cc1ccc2ccccc2c1C(O)c1ncc(-c2ccc(F)cc2)[nH]1 (configuration not stated),inactive: -5.81%
11,C/C(=N\NC(=O)CCCCCNC(=O)c1ccccc1)c1ccccc1O,inactive: 11.5%
12,CCC(CC)NC(=O)CSc1nnc(-c2c[nH]c3ccccc23)o1,inactive: 0.706%
13,COc1ccccc1NC(=O)NC1(C(=O)N2CCCCC2)CCCCC1,inactive: -8.01%
14,O=C(O)c1ccc(S(=O)(=O)c2ccccc2C(=O)O)c([N+](=O)[O-])c1,inactive: -5.63%
15,COc1cc2nc(Cl)nc(N3CCCCC3)c2cc1OC,inactive: -18.2%
16,Cc1ccc(OCCOCCOc2ccc(Br)cc2/C=N\NC(=O)c2ccncc2)cc1,inactive: -6.23%
17,CC(NC(=O)C1CCN(S(=O)(=O)c2cc([N+](=O)[O-])ccc2Cl)CC1)c1ccccc1 (configuration not stated),inactive: 1.43%
18,CCCc1cc(=O)[nH]c(Nc2ccc3c(c2)OCCO3)n1,inactive: 6.9%
19,O=C(NCc1cccnc1)c1ccc(COc2ccccc2Br)cc1,inactive: 18.4%
20,Cc1ccc(NC(=O)C2Cc3ccccc3O/C2=N\O)cc1C (configuration not stated),inactive: 13.3%
21,COc1ccc(NC(=O)C(C)N2c3cccc4cccc(c34)S2(=O)=O)c(OC)c1 (configuration not stated),inactive: -4.27%
22,O=C(c1ccccn1)N1CCN(c2cccc(C(F)(F)F)c2)CC1,inactive: 12.1%

row,Structure (SMILES),growth rescue (activation)
1,CC(=O)c1ccc(-c2cnc3c(NC=O)cc(-c4cccc(NS(C)(=O)=O)c4)cn23)cc1,inactive: 9.63%
2,Cc1ccc(S(=O)(=O)Nc2c(C)[nH]c(=O)[nH]c2=O)cc1C,inactive: -1.41%
3,Cc1nc(C)c(-c2csc(Nc3ccc(O)cc3C)n2)s1,inactive: 4.48%
4,Fc1ccccc1N1CCN(C2CCCN(Cc3cccc(C(F)(F)F)c3)C2)CC1 (configuration not stated),inactive: 4.94%
5,CCOc1ccccc1N1CC(C(=O)N(C)Cc2cccnc2)CC1=O (configuration not stated),inactive: 4.65%
6,O=C(NCc1ccco1)c1ccc(COc2cc(Cl)ccc2Cl)cc1,inactive: 18.1%
7,CSc1ccc(CN(C)CC(=O)Nc2cccc(Br)c2)cc1,inactive: -2.53%
8,COc1cc(Cl)c(C)cc1NC(=O)CSc1nnc(CCC(=O)O)c(=O)[nH]1,inactive: -3.26%
9,Cc1ccc2nc(NC(=O)CSCC(=O)OCC(=O)c3ccc(Br)cc3)sc2c1,inactive: -14.8%
10,Cc1ccc(CCN2CC(C(=O)NC(C)C)CC2=O)cc1 (configuration not stated),inactive: 7.8%
11,CCCCn1c(SCN2C(=O)c3ccccc3C2=O)nc2cc(S(N)(=O)=O)ccc21,inactive: -11%
12,Fc1cccc(-n2ncc3c2ncn2nc(COc4ccc(Cl)cc4)nc32)c1,inactive: 15.3%
13,CCC(=O)N1CCCC1(C)C(=O)Nc1ccc2scnc2c1 (configuration not stated),inactive: -4.37%
14,CCN(CC)C(=O)CN(c1cccc(Br)c1)S(C)(=O)=O,inactive: -17.5%
15,CC1=N/C(=C\c2ccc3c(c2)OCO3)C(=O)N1c1ccc(C(=O)O)cc1,inactive: -0.24%
16,Cc1cc(S(=O)(=O)NCCN2CCOCC2)ccc1Cl,inactive: -0.848%
17,CC(OC(=O)CCC(=O)c1cccs1)C(=O)Nc1ccccc1[N+](=O)[O-] (configuration not stated),inactive: 2.88%
18,CC12c3ccccc3C(c3ccccc31)C1C(=O)N(Cc3cccnc3)C(=O)[C@H]12 (some centres not stated),inactive: -3.52%
19,CC(=O)c1cccc(NC(=O)c2ccc(S(=O)(=O)N3CCCC3)cc2)c1,inactive: 23.1%
20,Oc1nc(-c2ccc(Br)cc2)n2ccncc12,inactive: -6%
21,COc1cccc(S(=O)(=O)N2CCN(C(=O)c3ccco3)CC2)c1,inactive: 2.1%
22,Cc1nc2cc(-c3ccsc3-n3c(C)ccc3C)[nH]n2c(=O)c1Cl,inactive: 14.1%

row,Structure (SMILES),growth rescue (activation)
1,COC(=O)C/C(O)=C(/N=Nc1cccc(C(F)(F)F)c1)C(=O)OC,inactive: -18.3%
2,CCCCC(=O)Nc1ccc(C(=O)NCCc2ccc(S(N)(=O)=O)cc2)cc1,inactive: 5.36%
3,O=C(NC(Cc1ccccc1)C(=O)O)/C(=C\c1ccc(F)cc1)NC(=O)c1ccco1 (configuration not stated),inactive: 17.7%
4,COc1ccc(Cn2c(-c3ccc(Cl)cc3)c[n+]3ccccc23)cc1,inactive: 1.28%
5,O=[N+]([O-])c1cc(Cl)ccc1-c1nc(-c2ccccc2)no1,inactive: 25.2%
6,Cc1cc(NC(=O)Cn2nc(C(=O)O)c3ccccc3c2=O)c([N+](=O)[O-])cc1C,inactive: 9.44%
7,CCOc1cc(Br)c(CC(=O)NC2CCCCCC2)cc1OCC,inactive: 22.8%
8,Nc1c(C(=O)NCc2ccc3c(c2)OCO3)nnn1Cc1ccc(Br)cc1,inactive: 14.5%
9,CCOc1ccccc1NC(=O)CN(C)S(=O)(=O)c1ccc2nc(C)sc2c1,inactive: 21.4%
10,NC(=O)CSc1n[nH]c(=O)n1CCc1ccccc1,inactive: 3.58%
11,CCn1cc(Cl)c(C(=O)Nc2ccc(OC)c(OC)c2)n1,inactive: 11.3%
12,Cc1ccccc1Nc1nc(N)nc(COC(=O)c2ccc(O)cc2)n1,inactive: 7.68%
13,CC(=O)Nc1ccc(NC(=O)C(C)OC(=O)CC23CC4CC(CC(Br)(C4)C2)C3)cc1 (configuration not stated),inactive: 6.21%
14,O=C(Cc1c(F)cccc1Cl)OCC(=O)N1CCc2ccccc21,inactive: 37.4%
15,Cc1c(Nc2cc(N3CCCC(C)C3)c3nonc3c2[N+](=O)[O-])c(=O)n(-c2ccccc2)n1C (configuration not stated),inactive: 10.6%
16,O=C(Nc1sc2c(c1C(=O)NCc1ccco1)CCCC2)c1cc(=O)c2ccccc2o1,inactive: -1.29%
17,CCN(CC)C(=O)C1CCCN(C(=O)Nc2ccc3nsnc3c2)C1 (configuration not stated),inactive: -6.35%
18,COC(=O)C1CCN(C(=O)COC(=O)c2cc(S(=O)(=O)N3CCOCC3)ccc2C)CC1,inactive: 20.9%
19,Cn1c(Cc2ccccc2)nnc1SCC(=O)NC1CCCC1,inactive: 12.6%

# — PubChem BioAssay AID1347073 (National Center for Advancing Translational Sciences (NCATS), 2019)
